Laboratory results as given in the supplement of paper PMC4604168 (melanoma cell lines).
This is one part of the list. Single values are uncertain, as repeats are few or missing.

Tests used:
Experiment in all cases: cell count relative to DMSO control; melanoma cells; higher = more viable cells
Details in all cases: library dose: low library concentration; 72 h
MZ2-MEL = test system: MZ2-MEL
MeWo = test system: MeWo
RPMI7951 = test system: RPMI7951
RVH-421 = test system: RVH-421
SkMel28 = test system: SkMel28
SkMel2 = test system: SkMel2
SkMel30 = test system: SkMel30
SkMel5 = test system: SkMel5
UACC257 = test system: UACC257
UACC62 = test system: UACC62
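Also: cell number obtained by counting DAPI-stained nuclei in high-throughput microscope images with image analysis software, screen run in 1,536-well plates.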

Row | SMILES | cell count (MZ2-MEL) [%] | cell count (MeWo) [%] | cell count (RPMI7951) [%] | cell count (RVH-421) [%] | cell count (SkMel28) [%] | cell count (SkMel2) [%] | cell count (SkMel30) [%] | cell count (SkMel5) [%] | cell count (UACC257) [%] | cell count (UACC62) [%]
1 | NC(=O)c1ccc(N(C(N)=O)c2c(F)cccc2F)nc1-c1ccc(F)cc1F + N#Cc1c(O)c2c(-c3ccc(-c4ccccc4O)cc3)csc2[nH]c1=O [A769662] (first compound 0.4 µM, partner dose 2 µM) | 107 | 99.9 | 103 | 104 | 101 | 101 | 96 | 113 | 107 | 102
2 | NC(=O)c1ccc(N(C(N)=O)c2c(F)cccc2F)nc1-c1ccc(F)cc1F + COc1cc(Nc2ncc(F)c(Nc3ccc4c(n3)NC(=O)C(C)(C)O4)n2)cc(OC)c1OC [Tamatinib] (first compound 0.4 µM, partner dose 0.4 µM) | 98.3 | 90.4 | 78.4 | 115 | 66.2 | 104 | 107 | 84.9 | 64 | 76.1
3 | CC(C)(C)c1cnc(CSc2cnc(NC(=O)C3CCNCC3)s2)o1 + CN(NC(=O)CC(=O)NN(C)C(=S)c1ccccc1)C(=S)c1ccccc1 [STA4783] (first compound 0.01 µM, partner dose 0.006 µM) | 108 | 90.8 | 102 | 96.4 | 93.7 | 81.4 | 85.3 | 113 | 77.5 | 76.2
4 | NC(=O)c1ccc(N(C(N)=O)c2c(F)cccc2F)nc1-c1ccc(F)cc1F + COc1ccc(Cl)c(Nc2nc3ccccc3nc2NS(=O)(=O)c2cccc(NC(=O)C(C)(C)N)c2)c1 [XL147] (first compound 0.4 µM, partner dose 0.8 µM) | 94.5 | 98.3 | 92.5 | 94.8 | 93.8 | 94.7 | 120 |  |  | 102
5 | CCCCCCCCc1ccc(CCC(N)(CO)CO)cc1 [fingolimod] + COc1cc2c(Oc3ccc4[nH]c(C)cc4c3F)ncnc2cc1OCCCN1CCCC1 [cediranib] (first compound 2 µM, partner dose 0.4 µM) | 98 | 106 | 85 | 95.6 | 92.6 | 87.3 | 90.7 | 90 | 86.6 | 71.9
6 | NC(=O)c1ccc(N(C(N)=O)c2c(F)cccc2F)nc1-c1ccc(F)cc1F + O=C(O)c1ccc2c(c1)nc(Nc1cccc(Cl)c1)c1ccncc12 [CX4945] (first compound 0.4 µM, partner dose 0.4 µM) | 99.6 | 96.5 | 91.1 | 90.7 | 112 | 104 | 115 |  |  | 107
7 | NC(=O)c1ccc(N(C(N)=O)c2c(F)cccc2F)nc1-c1ccc(F)cc1F + C=CCn1c(=O)c2cnc(Nc3ccc(N4CCN(C)CC4)cc3)nc2n1-c1cccc(C(C)(C)O)n1 [MK1775] (first compound 0.4 µM, partner dose 0.02 µM) | 106 | 105 | 79 | 70.6 | 86.2 | 92.2 | 101 | 81.1 | 77.7 | 81.4
8 | NC(=O)c1ccc(N(C(N)=O)c2c(F)cccc2F)nc1-c1ccc(F)cc1F + Nc1cccc2c1CN(C1CCC(=O)NC1=O)C2=O [lenalidomide] (first compound 0.4 µM, partner dose 1 µM) | 96.2 | 105 | 91.1 | 83 | 86.4 | 87.4 | 111 |  |  | 93.6
9 | CCCCCCCCc1ccc(CCC(N)(CO)CO)cc1 [fingolimod] + O=C(O)c1ccc2c(c1)nc(Nc1cccc(Cl)c1)c1ccncc12 [CX4945] (first compound 2 µM, partner dose 0.4 µM) | 94.7 | 94.6 | 74.6 | 93.7 | 120 | 83.7 | 91.2 |  |  | 91.2
10 | NC(=O)c1ccc(N(C(N)=O)c2c(F)cccc2F)nc1-c1ccc(F)cc1F + OCc1c[nH]c2ccccc12 [Indole-3-carbinol] (first compound 0.4 µM, partner dose 0.8 µM) | 103 | 84.3 | 92.7 | 76.7 | 69.3 | 93.9 | 96.9 |  |  | 81.2
11 | CCCCCCCCc1ccc(CCC(N)(CO)CO)cc1 [fingolimod] + CS(=O)(=O)CCNCc1ccc(-c2ccc3ncnc(Nc4ccc(OCc5cccc(F)c5)c(Cl)c4)c3c2)o1 [lapatinib] (first compound 2 µM, partner dose 0.8 µM) | 98.6 | 92.7 | 66.5 | 93.9 | 81 | 100 | 89.6 |  |  | 99.5
12 | CCCCCCCCc1ccc(CCC(N)(CO)CO)cc1 [fingolimod] + CO[C@@H]1[C@H](N(C)C(=O)c2ccccc2)C[C@H]2O[C@]1(C)n1c3ccccc3c3c4c(c5c6ccccc6n2c5c31)C(=O)NC4 [Midostaurin] (first compound 2 µM, partner dose 0.08 µM) | 96.3 | 81.5 | 65.7 | 92.4 | 102 | 77.8 | 90.9 | 82.4 | 74.2 | 87.9
13 | NC(=O)c1ccc(N(C(N)=O)c2c(F)cccc2F)nc1-c1ccc(F)cc1F + O=C(O)[C@@H]1[O][Sb](=[O])([O][Sb]2(=[O])[O][C@H]([C@H](O)CO)[C@H](O)[C@H](C(=O)O)[O]2)[O][C@H]([C@H](O)CO)[C@@H]1O [stibogluconate] (first compound 0.4 µM, partner dose 2 µM) | 99 | 101 | 91.9 | 95.8 | 115 | 88.6 | 89.5 |  |  | 93.1
14 | NC(=O)c1ccc(N(C(N)=O)c2c(F)cccc2F)nc1-c1ccc(F)cc1F + Cc1ccc(NC(=O)c2cccc(N(C)C)c2)cc1NC(=O)c1ccc(O)cc1 [ZM336372] (first compound 0.4 µM, partner dose 2 µM) | 77.3 | 94.5 | 86.7 | 103 | 74.6 | 102 | 87 | 100 | 76 | 85
15 | NC(=O)c1ccc(N(C(N)=O)c2c(F)cccc2F)nc1-c1ccc(F)cc1F + C#Cc1cccc(Nc2ncnc3cc(OCCOC)c(OCCOC)cc23)c1 [erlotinib] (first compound 0.4 µM, partner dose 0.8 µM) | 89.7 | 87.3 | 79 | 84.5 | 81.9 | 87.7 | 82.8 |  |  | 73.6
16 | CCCCCCCCc1ccc(CCC(N)(CO)CO)cc1 [fingolimod] + OCc1c[nH]c2ccccc12 [Indole-3-carbinol] (first compound 2 µM, partner dose 0.8 µM) | 104 | 94.8 | 87.7 | 64.2 | 105 | 90 | 89.3 |  |  | 87.3
17 | CCCCCCCCc1ccc(CCC(N)(CO)CO)cc1 [fingolimod] + Oc1nc(-c2ccc(C(F)(F)F)cc2)nc2c1CSCC2 [XAV939] (first compound 2 µM, partner dose 2 µM) | 88.1 | 108 | 61.4 | 17.9 | 89.4 | 90.2 | 91.1 | 86.2 | 100 | 72.6
18 | NC(=O)c1ccc(N(C(N)=O)c2c(F)cccc2F)nc1-c1ccc(F)cc1F + Cn1cncc1[C@@](N)(c1ccc(Cl)cc1)c1ccc2c(c1)c(-c1cccc(Cl)c1)cc(=O)n2C [tipifarnib] (first compound 0.4 µM, partner dose 0.01 µM) | 103 | 93.2 | 98.2 | 99.1 | 81 | 89.2 | 81.7 | 105 | 68.3 | 73.3
19 | CCCCCCCCc1ccc(CCC(N)(CO)CO)cc1 [fingolimod] + CC(C)C[C@H](NC(=O)[C@H](Cc1ccccc1)NC(=O)c1cnccn1)B(O)O [Bortezomib] (first compound 2 µM, partner dose 0.001 µM) | 89.6 | 80.9 | 75.8 | 93.7 | 92.1 | 81.3 | 91 |  |  | 88.8
20 | CCCCCCCCc1ccc(CCC(N)(CO)CO)cc1 [fingolimod] + O=C(O)[C@@H]1[O][Sb](=[O])([O][Sb]2(=[O])[O][C@H]([C@H](O)CO)[C@H](O)[C@H](C(=O)O)[O]2)[O][C@H]([C@H](O)CO)[C@@H]1O [stibogluconate] (first compound 2 µM, partner dose 2 µM) | 97.7 | 90.8 | 91.9 | 110 | 80.8 | 81.5 | 108 |  |  | 104
21 | NC(=O)c1ccc(N(C(N)=O)c2c(F)cccc2F)nc1-c1ccc(F)cc1F + O=S(=O)(c1ccccc1)N(CC(F)(F)F)c1ccc(C(O)(C(F)(F)F)C(F)(F)F)cc1 [T0901317] (first compound 0.4 µM, partner dose 1.4 µM) | 100 | 86.3 | 82.3 | 101 | 76.1 | 106 | 122 | 87.9 | 104 | 83.7
22 | NC(=O)c1ccc(N(C(N)=O)c2c(F)cccc2F)nc1-c1ccc(F)cc1F + C[C@]1(O)C[C@@H](c2nc(-c3ccc4ccc(-c5ccccc5)nc4c3)c3c(N)nccn32)C1 [OSI906] (first compound 0.4 µM, partner dose 0.4 µM) | 92 | 98.8 | 94.7 | 76.5 | 75.3 | 86.6 | 78.5 |  |  | 96.5
23 | NC(=O)c1ccc(N(C(N)=O)c2c(F)cccc2F)nc1-c1ccc(F)cc1F + C[C@@H](Oc1cc(-c2cnn(C3CCNCC3)c2)cnc1N)c1c(Cl)ccc(F)c1Cl [Crizotinib] (first compound 0.4 µM, partner dose 0.2 µM) | 97.6 | 91 | 100 | 73.7 | 80.8 | 92.1 | 109 |  |  | 90.4
24 | CCCCCCCCc1ccc(CCC(N)(CO)CO)cc1 [fingolimod] + Cn1c(=O)n(-c2ccc(C(C)(C)C#N)cc2)c2c3cc(-c4cnc5ccccc5c4)ccc3ncc21 [NVP-BEZ235] (first compound 2 µM, partner dose 0.004 µM) | 107 | 81.9 | 69.2 | 66.4 | 79.2 | 83.6 | 76.9 |  |  | 75.7
25 | NC(=O)c1ccc(N(C(N)=O)c2c(F)cccc2F)nc1-c1ccc(F)cc1F + C=C(c1ccc(C(=O)O)cc1)c1cc2c(cc1C)C(C)(C)CCC2(C)C [Bexarotene] (first compound 0.4 µM, partner dose 2 µM) | 95.5 | 88.9 | 86.4 | 92.1 | 70.2 | 88.7 | 92.6 |  |  | 95
26 | CCCCCCCCc1ccc(CCC(N)(CO)CO)cc1 [fingolimod] + C=C(c1ccc(C(=O)O)cc1)c1cc2c(cc1C)C(C)(C)CCC2(C)C [Bexarotene] (first compound 2 µM, partner dose 2 µM) | 88.9 | 80.7 | 68.6 | 120 | 54.4 | 82.2 | 105 |  |  | 77.6
